For 40 molecules, relative growth results are on record in the supplement of paper PMC9446081.

Hit rate of the full screen: of about 39,000 compounds, about 220 (0.56%) showed activity. Some of the results follow.
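Also: static incubation at 37 °C against the wild-type strain, values averaged over two biological replicates.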

The subject of the assay is Escherichia coli K-12 BW25113. The assay can be described thus: relative growth (OD600 normalised to plate interquartile mean) (fraction); higher = less growth inhibition, active = 0.2 or less. The note with it: 50 µM; LB; incubation time: overnight (16-24 h).
Take `C[C@H](CO)N1C[C@H](C)[C@H](CN(C)Cc2ccc(C(=O)Nc3ccccc3N)cc2)Oc2ccc(NC(=O)NC3CCCCC3)cc2CC1=O`: the relative growth was inactive: 1.
As for `C[C@@H]1CN([C@@H](C)CO)C(=O)c2cc(NC(=O)NC3CCCCC3)ccc2O[C@@H](C)CCCCO[C@H]1CN(C)C(=O)Nc1cccc2ccccc12`, the figure is inactive: 1.04; as for `C[C@@H]1CN([C@H](C)CO)C(=O)Cc2cc(NC(=O)C3CC3)ccc2O[C@H]1CN(C)S(=O)(=O)c1cccs1`, inactive: 0.986.
Take `CNCC(O)c1cccc(O)c1.Cl` (stereo not given): the relative growth was inactive: 1.04.
The same measure for `NC[C@H]1CN(Cc2ccc(F)cc2)CCO1`: inactive: 0.99; for `C[C@@H]1CN([C@@H](C)CO)C(=O)CCCn2cc(nn2)CO[C@@H]1CN(C)C(=O)Nc1cccc(C(F)(F)F)c1`: inactive: 0.967; for `COc1ccc(NC(=O)N(C)C[C@H]2OCCCC[C@@H](C)Oc3ccc(NC(=O)C4CCCCC4)cc3C(=O)N([C@@H](C)CO)C[C@@H]2C)cc1`: inactive: 0.974.
As for `COC(=O)C[C@H]1NCCNC1=O`, the relative growth was inactive: 0.914.
As for `COc1ccc2c3c([nH]c2c1)[C@H](CO)N(C[C@]13CN(C1)S(=O)(=O)c1cccs1)C(=O)c1ccccc1`, the figure is inactive: 1.02; as for `C[C@H]1CCCCO[C@H](CN(C)C)[C@@H](C)CN([C@@H](C)CO)C(=O)c2cc(NS(=O)(=O)c3cn(C)cn3)ccc2O1`, inactive: 0.983; as for `C[C@@H]1CN([C@H](C)CO)C(=O)c2cc(NC(=O)c3ccncc3)ccc2O[C@H]1CN(C)S(=O)(=O)c1ccccc1`, inactive: 0.999.
In the case of `N[C@@H]1CC[C@@H](CCn2cc(-c3cccc(F)c3)nn2)O[C@H]1CO`, the relative growth is inactive: 1.02.
As for `CO[C@H]1CN(C)C(=O)c2cc(NS(C)(=O)=O)ccc2OC[C@H](C)N(C(=O)c2ccc3c(c2)OCO3)C[C@@H]1C`, the figure is inactive: 1.04.
As to `Cc1ccc(S(=O)(=O)NCCC(=O)N2CCOCCOCCOCC2)cc1`, the relative growth is inactive: 0.984.
As for `C[C@@](Cc1ccccc1)(NC(=O)CN)c1ccccc1`, the figure is inactive: 0.988; as for `C[C@H](CO)N1C[C@H](C)[C@H](CN(C)S(=O)(=O)c2ccc(Cl)cc2)Oc2c(NC(=O)Nc3cccc4ccccc34)cccc2C1=O`, inactive: 1.
With `O=C(C[C@@H]1CC[C@H]2[C@@H](COC[C@@H](O)CN2S(=O)(=O)c2ccccc2)O1)N1CCc2ccccc2C1`, the relative growth is inactive: 0.955.
The same measure for `CCC(=O)N[C@H]1CC[C@@H](CC(=O)OC)O[C@H]1CO`: inactive: 1; for `C[C@H]1CCCCO[C@H](CN(C)C(=O)Nc2ccc(C(F)(F)F)cc2)[C@@H](C)CN([C@@H](C)CO)C(=O)c2cc(NC(=O)c3ccccc3)ccc2O1`: inactive: 1.05; for `COc1cccc(S(=O)(=O)N2C[C@@H](O)COC[C@H]3O[C@H](CC(=O)NCCCN4CCOCC4)CC[C@@H]32)c1`: inactive: 0.989.
The same measure for `COc1ccc(NC(=O)Nc2ccc3c(c2)C(=O)N([C@@H](C)CO)C[C@@H](C)[C@@H](CN(C)S(=O)(=O)c2ccccc2)OCCCC[C@H](C)O3)cc1`: inactive: 1.01; for `CCOC(=O)C1=C(C)NC(C)=C(C(=O)OC)C1c1cccc([N+](=O)[O-])c1` (stereo not given): inactive: 0.765.
Consider `Cc1noc(C)c1S(=O)(=O)N(C)C[C@H]1Oc2ccc(NC(=O)C3CCCCC3)cc2CC(=O)N([C@H](C)CO)C[C@@H]1C`, for which the relative growth was inactive: 1.02.
`Cc1ccc(S(=O)(=O)Nc2cccc3c2O[C@H](CN(C)S(=O)(=O)c2ccccc2)[C@H](C)CN([C@H](C)CO)C3=O)cc1`: the relative growth is inactive: 0.997.
The same measure for `C[C@@H]1CN([C@H](C)CO)S(=O)(=O)c2ccc(-c3ccc(C(=O)N(C)C)cc3)cc2O[C@@H]1CN(C)C(=O)C1CCOCC1`: inactive: 1.02; for `O=C(CCCCCNC(=O)OCc1ccc(CO[C@@H]2C[C@H](c3ccccc3)C=C(C(=O)N3CCN(Cc4ccccc4)CC3)O2)cc1)NO`: inactive: 1.03.
Take `CC(C)NC(=O)N(C)C[C@@H]1Oc2c(NC(=O)NC3CCCCC3)cccc2C(=O)N([C@H](C)CO)C[C@H]1C`: the relative growth was inactive: 0.985.
On to `COc1ccc(S(=O)(=O)N(C)C[C@@H]2OCCCC[C@@H](C)Oc3ccc(NS(=O)(=O)c4ccc(Cl)cc4)cc3C(=O)N([C@@H](C)CO)C[C@H]2C)cc1`, for which the relative growth is inactive: 1.03.
Regarding `C[C@H]1CN([C@@H](C)CO)C(=O)Cc2cc(NC(=O)Nc3ccccc3)ccc2O[C@@H]1CN(C)Cc1ccc(C(=O)Nc2ccccc2N)cc1`, the relative growth is inactive: 0.994.
As for `O=C(C[C@@H]1C[C@@H]2c3cc(NS(=O)(=O)c4ccc(F)cc4)ccc3O[C@@H]2[C@H](CO)O1)NCc1ccccc1F`, the figure is inactive: 0.989.
As for `COc1ccccc1CNC(=O)C[C@H]1C[C@@H]2c3cc(NS(=O)(=O)c4ccc(F)cc4)ccc3O[C@@H]2[C@@H](CO)O1`, the relative growth was inactive: 0.998.
For `COc1ccc(S(=O)(=O)Nc2ccc3c(c2)C(=O)N([C@@H](C)CO)C[C@H](C)[C@@H](CN(C)C(=O)NC2CCCCC2)OCCCC[C@@H](C)O3)cc1`, the relative growth was inactive: 1.01.
Turning to `CCCCCCCCCCCCCCCCC(C(=O)O)C(O)(CC(=O)O)C(=O)O` (stereo not given), the relative growth was inactive: 0.963.
Turning to `C[C@H]1CN([C@@H](C)CO)C(=O)Cc2cc(NC(=O)C3CC3)ccc2O[C@@H]1CN(C)C(=O)NC1CCCCC1`, the relative growth was inactive: 0.98.
The same measure for `Cc1cc(C(=O)Nc2cccc3c2O[C@H](CN(C)Cc2ccccc2)[C@H](C)CN([C@@H](C)CO)C3=O)n(C)n1`: inactive: 1.01; for `COc1ccc(COC[C@]23N=C4Sc5ccc([N+](=O)[O-])cc5C(=O)N4[C@H](c4ccccc4O2)[C@H]3CO[Si](C)(C)C(C)(C)C)cc1`: inactive: 1.03.
As for `CCN(CC)CCCNC(=O)C1CCNCC1`, the figure is inactive: 1.02; as for `COc1ccc2c3c(n(c2c1)C)[C@@H](CO)N(C[C@]13CCN(CC1)C(=O)Nc1ccc(cc1)F)C(=O)c1ccc(cc1)F`, inactive: 1.01.
With `C[C@@H]1CN([C@H](C)CO)C(=O)c2cc(NC(=O)CCC(F)(F)F)ccc2O[C@@H](C)CCCCO[C@H]1CN(C)S(=O)(=O)c1ccc(Cl)cc1`, the relative growth is inactive: 0.991.
`Cc1noc(C)c1NC(=O)Nc1ccc2c(c1)C(=O)N([C@@H](C)CO)C[C@@H](C)[C@H](CN(C)S(=O)(=O)c1cccs1)OCCCC[C@@H](C)O2`: the relative growth is inactive: 0.994.
